The full ranking holds about 33,000 sequences; the median of “E-score (-0.5 to 0.5)” is about -0.056, and the highest 2% start at about 0.38. Some of the results follow.
What follows are sequences tested against Stb4 (UniProt P50104) (assay: PBM E-score (8-mer binding enrichment) (E-score (-0.5 to 0.5)); higher = stronger / more preferred TF binding; most listed sequences are background and not binding sites). Settings: protein concentration: 200 nM; construct: GST-DNA-binding domain.
In short: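 Masliner-normalised scans of fluorescent anti-GST signal were the basis for scoring. That signal came from GST-tagged yeast transcription factors applied at about 100-200 nM to double-stranded universal all-10-mer Agilent arrays on fresh or once-stripped slides. Each ungapped eight-base word, pooled with its reverse complement, received an E-score from the Universal PBM Analysis Suite.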

Going from AGGACCAA to CCACCTAC, the “PBM E-score” value falls from -0.016 to -0.246.

Going from CATAAAAG to AACTCCAA, the “PBM E-score” value falls from -0.16 to -0.255.

Compared with CAACAAGA, GGGCGGGA is higher in “PBM E-score” value: -0.17 for the first, 0.286 for the second.

Going from AGCGTTTG to CGGAGTGC, the “PBM E-score” value rises from -0.162 to 0.238.

First: ACAGGGGT
Second: AGCAGCAA
The “PBM E-score” value of the first is lower: -0.354 for the first, -0.201 for the second.

Going from AGGATCGC to CGAGTACA, the “PBM E-score” value rises from -0.129 to 0.113.

Compared with GCAGGCAC, ACGACCGT is lower in “PBM E-score” value: -0.175 for the first, -0.276 for the second.

Going from ACCAACAC to CCGTCCAA, the “PBM E-score” value rises from -0.239 to 0.17.

First: AGCTGCAC
Second: GACTCCAC
The “PBM E-score” value of the first is higher: 0.0235 for the first, -0.156 for the second.

Compared with ACTACCCT, ACCCTTAA is lower in “PBM E-score” value: -0.0381 for the first, -0.064 for the second.

Compared with CTAAGAAA, TCGGGCCA is higher in “PBM E-score” value: -0.0881 for the first, 0.3 for the second.

Going from AACTCACA to CCAACCAC, the “PBM E-score” value rises from -0.139 to -0.102.

Going from ACTCTTTG to ACCCCAGC, the “PBM E-score” value rises from -0.218 to -0.0907.

First: CCCGACAG
Second: ATTACGAA
The “PBM E-score” value of the first is higher: 0.26 for the first, -0.0192 for the second.

Compared with ACGCAAAC, TATTTTAA is higher in “PBM E-score” value: -0.297 for the first, -0.038 for the second.

First: CCCATCAG
Second: CGGCATAG
The “PBM E-score” value of the first is lower: -0.253 for the first, 0.22 for the second.

Compared with CCCGTTAG, AGGCCGGC is higher in “PBM E-score” value: 0.119 for the first, 0.153 for the second.

First: ATATGAAT
Second: ATGAACTA
The “PBM E-score” value of the first is higher: -0.00726 for the first, -0.0663 for the second.

Going from GATGGTGC to AGGTGCTA, the “PBM E-score” value rises from -0.191 to -0.179.

First: CCCAGCCA
Second: ATGTCTAG
The “PBM E-score” value of the first is lower: -0.137 for the first, 0.0228 for the second.

First: CCTCGGTA
Second: ATACGTGA
The “PBM E-score” value of the first is higher: 0.38 for the first, -0.0367 for the second.

Going from CGCGTTAG to ACCTATGC, the “PBM E-score” value falls from 0.0223 to -0.12.

First: ACGTCTTC
Second: ATAGTACA
The “PBM E-score” value of the first is higher: -0.006 for the first, -0.102 for the second.

Going from CGGTGTAG to ACTTGCGC, the “PBM E-score” value falls from 0.0483 to -0.0787.

Going from CCATTCTC to AGCTGCGC, the “PBM E-score” value falls from -0.0343 to -0.131.

Going from TAAATCTA to AGGGAAGG, the “PBM E-score” value falls from -0.0375 to -0.105.

First: AAGCATCA
Second: ACCACTTC
The “PBM E-score” value of the first is lower: 0.0126 for the first, 0.0776 for the second.

Compared with AACGCAAT, TCTCAAGA is lower in “PBM E-score” value: 0.0798 for the first, -0.148 for the second.

First: AAGAGTAC
Second: CCGCGCCC
The “PBM E-score” value of the first is lower: -0.0783 for the first, 0.151 for the second.

Going from AATAGAGC to GGCCCGGA, the “PBM E-score” value rises from -0.0923 to 0.402.

GTCTTGGA and CGTATGGC are the same in “PBM E-score” value: -0.15 for the first, -0.15 for the second.

Compared with GCTCCCGA, CGAGGTCA is lower in “PBM E-score” value: 0.41 for the first, 0.0536 for the second.

Going from CAAAATCA to GAGCGCGA, the “PBM E-score” value rises from -0.00631 to 0.0509.

Compared with CACGGAAG, AACGTAGC is lower in “PBM E-score” value: 0.36 for the first, -0.189 for the second.

Compared with ATGACTTA, GCTGCTCC is higher in “PBM E-score” value: -0.131 for the first, 0.0726 for the second.

Going from CGCTGTAC to ACCCTTCT, the “PBM E-score” value falls from 0.0558 to -0.238.

Going from TCCGCTAA to CGCCGTCA, the “PBM E-score” value falls from 0.167 to 0.0103.

Going from ACATGGGC to CTGGATTA, the “PBM E-score” value rises from -0.111 to 0.0706.

Compared with TCGCTGCA, TTACACAA is lower in “PBM E-score” value: -0.0472 for the first, -0.0835 for the second.

Compared with CTGTAGAC, CGCGCGCG is higher in “PBM E-score” value: -0.147 for the first, 0.0877 for the second.

Going from ATACTCGA to AAGACCGC, the “PBM E-score” value rises from -0.339 to -0.116.

First: ACCAACTA
Second: TCCGGAGA
The “PBM E-score” value of the first is lower: -0.2 for the first, 0.335 for the second.

Compared with CATCATCG, CCACCTAG is lower in “PBM E-score” value: -0.0416 for the first, -0.0915 for the second.

Compared with GCTGGGCA, TAGGCAGA is higher in “PBM E-score” value: -0.23 for the first, -0.139 for the second.

First: AGCGTGAA
Second: AGGTCCTC
The “PBM E-score” value of the first is lower: -0.29 for the first, -0.0727 for the second.

First: ATTTACGA
Second: GAGTGATC
The “PBM E-score” value of the first is lower: -0.0261 for the first, -0.021 for the second.

Going from ATCTGACC to CGGCTGAC, the “PBM E-score” value rises from 0.104 to 0.221.

Compared with CTTCTCGC, AGCTACAC is lower in “PBM E-score” value: 0.0362 for the first, -0.191 for the second.

Compared with AGCGAACG, CGGTTGCA is higher in “PBM E-score” value: -0.188 for the first, 0.0731 for the second.

First: ACGAATCG
Second: CGGAGCCG
The “PBM E-score” value of the first is lower: 0.0102 for the first, 0.352 for the second.

Going from GATACAGA to ATCATGAG, the “PBM E-score” value falls from -0.0482 to -0.105.

Compared with GATACCTA, ATTTCGCC is higher in “PBM E-score” value: -0.0288 for the first, 0.1 for the second.

Compared with CGTTTCTA, CCCACGAA is lower in “PBM E-score” value: 0.029 for the first, -0.224 for the second.

Going from CTTAGGAC to AGTGTTTG, the “PBM E-score” value rises from -0.279 to -0.118.

First: TACTAGCA
Second: TCCAGTAA
The “PBM E-score” value of the first is higher: -0.0746 for the first, -0.176 for the second.

Compared with ACATTTAG, TCGATCGA is higher in “PBM E-score” value: -0.252 for the first, 0.0717 for the second.

Going from GATAGGTA to GCTCGCGA, the “PBM E-score” value falls from 0.044 to -0.0996.

Going from AATCCTGG to CGCCGTGC, the “PBM E-score” value rises from -0.0647 to 0.0279.

Compared with CATGCCAG, GAAGGTGC is higher in “PBM E-score” value: -0.0883 for the first, 0.0841 for the second.

First: GTTCTCTA
Second: CGCTTAGA
The “PBM E-score” value of the first is higher: 0.0214 for the first, -0.0742 for the second.

Compared with GATATCTA, CATCGCCA is higher in “PBM E-score” value: -0.0905 for the first, -0.0625 for the second.

Compared with AAACCCTT, AACTGGCC is higher in “PBM E-score” value: -0.095 for the first, -0.0271 for the second.

First: CCAAGATA
Second: AGCGTTAT
The “PBM E-score” value of the first is higher: -0.0753 for the first, -0.193 for the second.

Going from ACGATGTC to TGTTAGAA, the “PBM E-score” value falls from -0.2 to -0.217.

Compared with ACACCTAT, GGCTGGGA is higher in “PBM E-score” value: -0.116 for the first, 0.0024 for the second.

Compared with GTATAAAA, GCCTCTCA is lower in “PBM E-score” value: 0.261 for the first, 0.0652 for the second.

First: CATCCCGA
Second: GGTTTCAC
The “PBM E-score” value of the first is higher: 0.401 for the first, -0.0809 for the second.

Going from GTAACTTA to TCGTTAGA, the “PBM E-score” value rises from -0.0954 to -0.0659.

First: ACAACATG
Second: AGTTCTAT
The “PBM E-score” value of the first is lower: -0.135 for the first, -0.0732 for the second.

First: ATGCGGAG
Second: ACGAGTGA
The “PBM E-score” value of the first is higher: 0.0793 for the first, -0.148 for the second.

Compared with CTGTTGGC, CCGTGAGG is higher in “PBM E-score” value: -0.207 for the first, 0.0781 for the second.

Compared with CGATACTC, CCCAGGCA is lower in “PBM E-score” value: 0.065 for the first, -0.207 for the second.

Going from AACGGCCG to AACCTCTC, the “PBM E-score” value falls from 0.208 to -0.113.

First: AGACGTAC
Second: CAGAAGGG
The “PBM E-score” value of the first is higher: -0.0194 for the first, -0.24 for the second.

First: ACGCCACG
Second: GACACACA
The “PBM E-score” value of the first is higher: -0.115 for the first, -0.118 for the second.

Going from ATCCGCCC to CCGCCAGA, the “PBM E-score” value falls from 0.364 to 0.0291.

Compared with CAGCAGCC, AACACCTA is lower in “PBM E-score” value: -0.101 for the first, -0.251 for the second.

Compared with CACGCAAC, ACGGTCAC is higher in “PBM E-score” value: -0.112 for the first, -0.0956 for the second.

Going from CCCATGCC to GCTACCCC, the “PBM E-score” value falls from 0.0716 to -0.0436.

Compared with CGTACCAC, GGCGCGAA is higher in “PBM E-score” value: 0.084 for the first, 0.0921 for the second.

Going from ATATATTA to GTGAACAC, the “PBM E-score” value falls from -0.0348 to -0.15.

Compared with AGTGACCA, TCTTAGCA is lower in “PBM E-score” value: -0.139 for the first, -0.176 for the second.

Compared with AGTAAGTG, ACACTGTG is lower in “PBM E-score” value: -0.025 for the first, -0.149 for the second.

Going from AAAGGGGA to TCCGAACA, the “PBM E-score” value rises from -0.22 to 0.447.

Compared with ACACGCAC, CGCGCGAC is higher in “PBM E-score” value: -0.137 for the first, 0.0974 for the second.

Compared with GTAATCAC, AGCGCACA is lower in “PBM E-score” value: -0.00202 for the first, -0.184 for the second.

Source: the supplement of paper PMC3334620
